This passage reports thermal melting temperature results from the supplement of paper PMC7726561.

Whole data set: some 1,400 sequences, median “thermal melting temperature (Tm) of peptide-HLA complex” near 60, cut for the lowest 2% near 45. The list shows a part of the results.
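Note: cell lysates heated 10 min at 37–73 °C, remaining pHLA pulled down with pan-class I antibody, peptides quantified by DIA-MS versus 37 °C, Tm where half the complex is lost.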

This experiment has as its target HLA-B*07:02. Briefly: thermal melting temperature (Tm) of peptide-HLA complex; higher = more thermostable pHLA complex. The following applies: C1R-B*07:02.
Turning to TPLGTRSGL, the thermal melting temperature came to 55.6 °C. As to HPYPPGPGVAL, the thermal melting temperature turned out to be 55.4 °C. APSGTRVVQVL had a thermal melting temperature of 41.4 °C. For GPLFRNSQL, the thermal melting temperature was found to be 59.9 °C. For FIRVSGSEL the value was 61.4 °C; for HPVVSSVPL, 57.8 °C. RPQTGLSFL had a thermal melting temperature of 61.7 °C.

As for LPRFFGTAV, the thermal melting temperature was 45.7 °C. In the case of SPNSQALIL, the thermal melting temperature came to 61.7 °C. For KPVYPGQTL the value was 60 °C. To TPSPIIQQL belongs 60.1 °C; to IPRSITVLVE, 61.2 °C. With IPKLPAVSF, the thermal melting temperature was 63.1 °C. The sequence WVRPDLGEL registered a thermal melting temperature of 60.4 °C.

With LPAWPHRGL, the thermal melting temperature was 60.3 °C. For IPLSGRNPL the value was 62.1 °C; for IPQRPYMSL, 58.9 °C; for KIRNFVVVF, 60.9 °C. For the sequence KPRTVFSDYL, the thermal melting temperature came out at 58.3 °C. The sequence RPFHGWTSL had a thermal melting temperature of 56.5 °C. For RPFTRHQSF the value was 53 °C; for VPRVPTHTL, 62.6 °C.

Regarding IPRSITVLV, the thermal melting temperature was 62.4 °C. In the case of LPQPNRTSSVL, the thermal melting temperature is 52.8 °C. The sequence APIDRVGQT yielded a thermal melting temperature of 62.9 °C. The sequence LPSKPSSTL displayed a thermal melting temperature of 58.1 °C.

The sequence LPRKAGVFSDL returned a thermal melting temperature of 56.3 °C.

RVQKIRPSI yielded a thermal melting temperature of 56.7 °C.

In turn, SPRGAGWLF yielded a thermal melting temperature of 63.6 °C. Take SPSSKYVKL: the thermal melting temperature was 56.3 °C. For the sequence PYPRPIHL, the thermal melting temperature came out at 60.3 °C.

As to DPMPAAKRYPL, the thermal melting temperature amounted to 54.2 °C. Take SPVGRTLRV: the thermal melting temperature was 52.8 °C. In turn, QPRNPLEEL came in with a thermal melting temperature of 58.4 °C. To KPVSLGQAL belongs 60.5 °C; to APWSGRFYSL, 61.1 °C.
